Measurements reported in the RNAGym collection of RNA variant scans (doi:10.1093/nar/gkz1192).
Read counts are not given, so values of variants with three or more changes are uncertain.

B1: CPEB3 Ribozyme (parent)
chain: UAACAGGGGGCCACAGCAGAAGCGUUCACGUCGCAGCCCCUGUCAGAUUCUGGUGAAUCUGCGAAUUCUGCUGUAUAUCUC

Variants of: B1
Assay: self-cleavage, relative activity (ratio to wild type); higher = more cleavage; in vitro, sequencing
Outline: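 Libraries of CPEB3 self-cleaving ribozyme mutants came from rounds of error-prone PCR and carried barcodes, which DNA sequencing matched to variants. In vitro transcription used T7 RNA polymerase at 37°C for 5 hours, with a further 15 min in DNase I before EDTA stopped the reaction; the ribozymes cleaved during both steps. The RNA was reverse transcribed with template switching and sequenced on Illumina. Relative activity is the cleaved/total read fraction of a variant divided by that of the unmutated ribozyme, averaged over three batches with at least 5 reads.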

Variant	self-cleavage
C12A A15U A18U C27G A47G A64G	0.04
G10C G19U G55A A75G	0.04
C11U U49C U67G U69G	0.14
C12A U31C U43A U80C	1
C11A A28U G55U	0.37
C12A U31G U49C	0.18
C12A U26C U41A U58A C62U	0.1
C11A A15U A18U	0.3
C11A A15U A18C	0.47
C11U C39G A47U U72A	0.04
C12A A20G U43C U72C	0.46
G10U A18U A45G	0.01
C11U U26C A28G U41C U43C U54A U80G	0.11
C12G A21U U51C	0.18
G10C U43C U67C U74C	0.06
C11U A13G U41C A56U A57U	0.14
G10U C11G U25C C34G U43G	0.05
C11G U26A U31A G55U A64G U67A	0.04
C11G A18U U31C U58A	0.06
C12A U26C U31C	0.31
C12U A15C G42U A56G	0.16
C12A U54A U72C	1.1
C11A A13G U41C	0.43
G10U A20G U26A	0.05

Variant	self-cleavage
C11U U26C A56G A57U U74C	0.16
C11G C39G U60A A64U U67A U69A	0.05
G10U C40A U60A U66C U74C	0.05
G10U U41G U58C U60C	0.35
C11G A65G U74A U78C	0.13
C11A A13G A35U	0.12
G10U A28U A77G U78C	0.3
C11G U26C A28G C34U A75U	0.05
C12A A15U A28U U48C U67C	0.17
C11U A20U U25C U72C A77U	0.05
C12U A20G A35U	0.68
C11G A15U A21G A45U	0.14
C11U G19A U54C U72A U74C	0.06
C11U A20U U74A	0.37
G10U U74C U78A	0.26
C12G A13G G16U A18U A65G	0.08
C11G A18G C37A A45C A56G A65G	0.03
C12G A35G A57G U58A	0.22
C11U C17A G19U U25C U41A C62G	0.05
G10U A18G A20C C29U G53U U54G	0.12
C11G A45C U60C	0.05
C12U A13G U41C A64G	0.39
G10U A57G U60C	0.04
C11A A15G A18U U51C U54G	0.06

Variant	self-cleavage
C11U A35G G53A U58C U66C U74C	0.46
C11U A20G U31A U48C U76G U78C	0.05
C11U A35G C39U U43C	0.29
C11G A15U U54A A57G U78A U80C	0.42
C11U A18G U31A U60C U76A A77G	0.02
C12A A13G U31A A35U U60A	0.14
C12A A15U A64G U72C	1
C11U A15G U48C A57G U66C U78C	0.05
C11U U60C U69C A77U	0.08
C12A A21C U51A U58C U60A	0.07
C11U C37U A47U U69C	0.03
C12A A15U U54G U72C	0.74
C12G A13C A18U U25C U60C	0.06
C11A A20C U43A A64G	0.05
C12A A28G C40A A45U G70A U74C	0.14
C11U A45C U66C A77G	0.06
C12U A13G U49C A65U U66C	0.07
C11G U60A U67A	0.18
C11A A15G U26C U72C U78G	0.06
C11G A15U G16A G30A G36A U41C U60A	0.06
G10C G42A U43C A45G U51A	0.05
C11U U48C U74C A77G	0.21
C11U U48C U58C	0.14
C11A U69C U72C U76C U80A	0.08

Variant	self-cleavage
C11U U25A C39G A64G U67A U74G	0.1
C11G A15G C39G A45G A47G	0.03
C11A A18U U51C U54G U60C	0.29
C11G G19A U25G U78A	0.19
C12U A13U U43C U72C	0.31
G10C C23U U26C U48C	0.19
C11G G24C U66C G73A	0.35
C11A U25A U31C U54A	0.14
C11A C37U U43A A65G U80A	0.07
C11G U41C U54A	0.8
C11G G33A U48A U78C	0.31
C11G A18G C32A A45G U49C U80C	0.24
C11A G24A U43C A56U	0.06
C12U A20G A35U U43A U74G	1.27
C11U A28C A57G	0.07
C12G U51C U69A U72A	0.15
C11G U25C A45G G70U U74A	0.34
C11G U41C U49C A64G	0.08
G10U A28U U41C A77U	0.16
C12U A56G U58G U76A	0.43
C11G A21G A28U C32U U66C U69C U74A	0.03
C11G A15G G19A U41C A45U	0.04
C11U U25C A35U	0.18
C12G A18U U41C U54C U58A U67C	0.1

Variant	self-cleavage
C11G U48C A64G U67C	0.08
C11G C39G U41A U54A U72C	0.08
C11U U41C U43C G63A U69C U72C	0.02
C11G A18U U41A U48C U49C	0.09
C11U U41A A47G A56U A57G	0.08
C11A A18C U43A	0.11
C11U U49C A64U U69G U78A	0.03
G10U A13U C14A A18U C62G	0.12
C11U U51C A64G	0.23
C11G A35G U78C C79U	0.36
C12U A20G A35C A45G A47G U48G U78C	0.11
C11U U60A U69A	0.12
C11A U26C U41C	0.42
C11A U69C U72C	0.12
C11G C23U U41C C79U	0.08
G10C U41G A57G	0.15
C11U U26C U41G U80C	0.05
G10U G19C U41A G55U	0.05
C12A A65G U69A	0.33
G10C C27G U31C A45G U58G A64U	0.13
C11U C12A C23U U26C G30U U69C U76C	0.08
G10U C37U U51A U58C U78G U80C	0.05
C11A U25C G33A A65G	0.04
C11A A13G U72A A77G	0.23

Variant	self-cleavage
C12A U43C U60A	0.31
C11U C40U U48C C50U U51C U54A A56U	0.04
C12U A57G A64G A65G U80C	0.2
C12A A13C G61A U78C	0.4
C12A A15U A35G	0.79
C11G A28G A64G	0.07
C11G A35U U66A	0.07
C11A U43G U67C U72A	0.07
C11G C32G U41C C44U U51A U60A	0.04
C12A A45G U54C U72A	0.61
C11U G30A U54C U69C	0.05
C11G C17A A21G U25A U31A U41A A77U	0.01
C11G A35G A75G	0.45
G10U A35U U78C	0.09
C11U U51A U78G	0.28
C11G U43A A47G C59A	0.15
C12U A20U U43A C79A	0.96
C11G A21G U80A	0.17
C11G A21G U80C	0.2
C12A U49C A57G U80C	0.26
C11G A15G A28G U51G G61A	0.02
C11G A21G A45C	0.34
C12G A21G A28U A56G	0.04
C12U A15G A28G A45U A56G	0.14

Variant	self-cleavage
C11A U25C C29A	0.27
C12A A21G C29G C59U A65G	0.14
C11U A13U U25G G30A U74C U78A	0.07
C11G U26C A35G G63U A75G	0.37
C11U U26C U74C	0.43
C12A A35U U54C U80A	1.3
C11A U58C A77U	0.33
C12U A65G U78C	0.47
C11U C34G U49C A56G U72C	0.11
C11U A21U U49A C50U A56U U58G A64G	0.03
C11A A13G U69C	0.08
C12U A20U U26C A35U U66C	0.06
C12A C17G G22U U41A	0.09
C12A U25C U41A A57G A64G	0.22
G10C U25C C27A U31C C44A	0.06
C11A U26A U78C	0.05
C11G U41A U74C U80C	0.5
C11U A15G U60A	0.45
C11U U25C U26C U49C	0.29
C12A A21G U31C G33A	0.1
C11U A18G A56G U72C	0.25
G10C C23U C40U A64U	0.05
C11A A35G A45G U76A	0.27
